Screen size: about 43,000 compounds; about 200 (0.47%) were called active. Inconclusive results (about 12%) are left out. Calls come from the whole dose curve; as a rule, active = well fitted cell-killing curve with a large enough effect; inconclusive = small, poorly fitted or top-dose-only effect, or effect the other way; inactive = flat fitted curve, though single readings scatter. Some of the results follow.
experiment: Cell viability qHTS assay in S16 Pmp22-F2sN cells; conditions: S16 Pmp22-F2sN Schwann cells viability, CellTiter-Glo, 24 h; series mostly up to 57.5 µM; activity change, negative = cytotoxicity: at the top concentration; note: nearly all actives have a fitted effect of over 65% in size
Outline: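 S16 Pmp22-F2sN Schwann cells (500-1,000/well) in phenol-red-free DMEM with 10% FBS received 23 nL compound by pin tool for 24 h at 37 °C. Viability was then read as CellTiter-Glo luminescence after 15 min at room temperature.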
% is set by controls: 0 for no effect and ±100 for the full control effect.

Compound | activity change, negative = cytotoxicity
COc1ccc(NC(=O)CSC2=Nc3ccccc3N=C(c3ccc(F)cc3)C2)cc1OC | inactive: 19%
CCN(C(=O)CCNC(=O)Cn1cnc2ccccc2c1=O)c1cc(OC)ccc1OC | inactive: -1.81%
CN(C)c1cccc(C(=O)Nc2nc3ccc(S(=O)(=O)N4CCCC4)cc3s2)c1 | inactive: -23.6%
CCSc1ncc(Cl)c(C(=O)Nc2nc3ccc(Cl)cc3s2)n1 | inactive: -1.27%
CN(C)c1ccc(CNC(=O)CN2C(=O)CSc3ccc(S(=O)(=O)N4CCCC4)cc32)cc1 | inactive: 12.4%
CCC1CN(C(=O)N2CCC(C(=O)NCc3cc(OC)c(OC)c(OC)c3)CC2)c2ccccc2O1 (configuration not stated) | inactive: -1.33%
CN(C)c1ccc(NC(=O)Cn2nnc3sc4c(c3c2=O)CCC(C(C)(C)C)C4)cc1 (configuration not stated) | inactive: 8.45%
COc1ccc(-c2[nH]ncc2C(=O)NCc2cccc(OC)c2)cc1 | inactive: 2.46%
CCOc1cccc2cc(-c3cn4c(n3)sc3ccccc34)c(=O)oc12 | inactive: 0.112%
Cc1ccsc1CN(C(=O)COc1ccc(Cl)cc1)C1CCS(=O)(=O)C1 (configuration not stated) | inactive: -6.12%
CC1CCN(S(=O)(=O)c2ccc3c(ccc(=O)n3CC(=O)NCc3ccccc3Cl)c2)CC1 | inactive: -0.625%
Cc1ccc(CNC(=O)CSc2nnc(C)c3c(C)n(-c4ccccc4)nc23)cc1 | inactive: -1.49%
Cc1ccc(-c2nnc(Nc3ccccc3)c3ccccc23)cc1S(=O)(=O)N1CCOCC1 | inactive: 1.4%
Cc1ccc(CNC(=O)c2ccc3c(c2)N(Cc2ccccc2Cl)C(=O)CS3)cc1 | inactive: 22.7%
Cc1cccc(N2CCN(C(=O)c3oc(=O)c4ccccc4c3-c3ccccc3)CC2C)c1 (configuration not stated) | inactive: 13%
Cc1cc(OCC(=O)NC(Cc2c[nH]c3ccccc23)C(=O)O)ccc1Cl (configuration not stated) | inactive: 17.9%
Cc1oc2ncn(C)c(=O)c2c1C(=O)Nc1ccc(F)cc1 | inactive: 14.7%
CCOC(=O)c1[nH]c(C)c(CCC(=O)Nc2ccccc2C(=O)OC)c1C | inactive: -29.7%
CCc1nn(CC(=O)NCCc2ccc(Cl)cc2)c(=O)c2cc3ccccc3n12 | inactive: 6.51%
Cc1cc(N2CCN(c3ccc(F)cc3)CC2)n2nc(-c3ccc(Cl)cc3)nc2n1 | inactive: 1.3%
COc1cccc(CNC(=O)c2cccc(-n3c(C)nc4cccnc43)c2C)c1 | inactive: -7.13%
Cc1cccc(CSc2nc(=O)c3c(n2C)NC(=O)CC3c2cc(F)cc(F)c2)c1 (configuration not stated) | inactive: -3.36%
CC(C)OCCCNC(=O)c1ccc(Cn2c(=O)c3cccn3c3cccnc32)cc1 | inactive: -3.1%
Cc1ccc(-c2nc(SCC(=O)NCC3CCCO3)c(-c3ccc(C)cc3)[nH]2)cc1 (configuration not stated) | inactive: 4.34%

Compound | activity change, negative = cytotoxicity
O=C(Nc1cccc(Cl)c1)c1csnn1 | inactive: -12.3%
Cc1nnc(N2CCN(C(=O)Nc3cccc(C(F)(F)F)c3)CC2)c2nn(-c3ccccc3)c(C)c12 | inactive: -19.3%
NC(=O)c1cc(S(=O)(=O)NCC2CCC(C(=O)Nc3ccc(Cl)cc3)CC2)cs1 (configuration not stated) | inactive: 1.58%
O=C(Nc1ccc(O)cc1)c1cccc(S(=O)(=O)N2CCOCC2)c1 | inactive: 25%
O=C(CSc1nc2c([nH]c3ccccc32)c(=O)n1-c1ccccc1)N1CCCC1 | inactive: 13.8%
COc1ccc(C)cc1NC(=O)c1ccc2c(Cl)c3c(nc2c1)CCC3 | inactive: 9.08%
Cn1nc(C(=O)N2CCN(c3ccccc3)CC2)c2c1-c1ccccc1S(=O)(=O)C2 | inactive: 4.33%
COc1ccc(S(=O)(=O)c2c(SC)nn(Cc3ccccc3C)c2NC(C)=O)cc1 | inactive: 3.22%
COc1cccc(NS(=O)(=O)c2ccc3[nH]cc(C(=O)N(C)C4CCCCC4)c(=O)c3c2)c1 | inactive: -18.6%
CCCCn1c(=O)c2oc3ccccc3c2n(CC(=O)Nc2cccc(Cl)c2)c1=O | inactive: 7.86%
CCCCc1nn2c(=O)cc(COC(=O)c3ccccc3NC(=O)c3ccccc3OC)nc2s1 | inactive: 2.48%
CCCC(=O)N1c2nc(C(C)C)nn2C2(CCCCC2)[C@@H]2CCCC[C@@H]21 | inactive: -1.02%
Cc1ccc(OCC(=O)Nc2ccc3nn(-c4ccc(Cl)cc4)nc3c2)cc1 | inactive: 8.33%
O=c1c2oc3ccccc3c2n(Cc2ccccc2)c(=O)n1Cc1ccc2c(c1)OCO2 | inactive: 1.02%
CCOC(=O)c1cccc(Nc2ccc3cc(S(=O)(=O)N4CCCCC4)ccc3n2)c1 | inactive: -19.8%
COc1cc(C2CC(=O)Nc3c2c(=O)[nH]c2ncnn32)ccc1O (configuration not stated) | inactive: -1.45%
CCOC(=O)C1CCCN(C(=O)c2ccc3c(c2)N(Cc2ccccc2)C(=O)c2ccccc2S3=O)C1 (configuration not stated) | inactive: -1.22%
Cc1ccc(C)c(NC(=O)Cn2c(=O)n(CCC(=O)NCc3ccc4c(c3)OCO4)c(=O)c3ccccc32)c1 | inactive: 26.2%
CCCN1CCCc2cc(CN(CCCN3CCOCC3)C(=O)Nc3ccc(CC)cc3)ccc21 | inactive: 19.5%
COc1ccc(CN2C(=O)C(NC(=O)c3ccccc3C)(C(F)(F)F)N=C2c2ccccc2)cc1 (configuration not stated) | inactive: -0.422%
Cc1nn(CC(=O)NCc2ccc(OC(C)C)cc2)c(=O)c2c(C)n(-c3ccc(Cl)cc3)nc12 | inactive: -12.9%
CCc1ccccc1NC(=O)Cn1nnc(C(=O)Nc2ccc(C)c(F)c2)c1N | inactive: -1.39%
Cc1ccc2oc(-c3ccc(Cl)c(NC(=O)c4ccc(-c5ccccc5[N+](=O)[O-])o4)c3)nc2c1 | inactive: -3.26%
